{"source": "paper PMC9911399", "about": "“Two distinct binding modes provide the RNA-binding protein RbFox with extraordinary sequence specificity”", "binders": {"B1": {"name": "AAAGAUG (DNA:RNA)", "RNA": "GGGAGACCGGAAUUCAGAUUGUCCAAAGAUGUUAAAUCCCGUCGUAGCCACCA", "DNA 1": "CAATCTGAATTCCGGTCTCCC", "DNA 2": "TGGTGGCTACGACGGGATT"}, "B2": {"name": "GGAGUUC (DNA:RNA)", "RNA": "B1 RNA with A25G, A26G, A29U, G31C", "DNA 1": "CAATCTGAATTCCGGTCTCCC", "DNA 2": "TGGTGGCTACGACGGGATT"}, "B3": {"name": "GGCCCGC (DNA:RNA)", "RNA": "GGGAGACCGGAAUUCAGAUUGUCCGGCCCGCUUAAAUCCCGUCGUAGCCACCA", "DNA 1": "CAATCTGAATTCCGGTCTCCC", "DNA 2": "TGGTGGCTACGACGGGATT"}, "B4": {"name": "UCGUCGC (DNA:RNA)", "RNA": "B3 RNA with G25U, G26C, C27G, C28U", "DNA 1": "CAATCTGAATTCCGGTCTCCC", "DNA 2": "TGGTGGCTACGACGGGATT"}, "B5": {"name": "GGCGCCG (DNA:RNA)", "RNA": "B3 RNA with C28G, G30C, C31G", "DNA 1": "CAATCTGAATTCCGGTCTCCC", "DNA 2": "TGGTGGCTACGACGGGATT"}, "B6": {"name": "CAGGAAG (DNA:RNA)", "RNA": "B1 RNA with A25C, A27G, U30A", "DNA 1": "CAATCTGAATTCCGGTCTCCC", "DNA 2": "TGGTGGCTACGACGGGATT"}, "B7": {"name": "GCUUCCU (DNA:RNA)", "RNA": "B3 RNA with G26C, C27U, C28U, G30C, C31U", "DNA 1": "CAATCTGAATTCCGGTCTCCC", "DNA 2": "TGGTGGCTACGACGGGATT"}, "B8": {"name": "UGGCCCA (DNA:RNA)", "RNA": "B3 RNA with G25U, C27G, G30C, C31A", "DNA 1": "CAATCTGAATTCCGGTCTCCC", "DNA 2": "TGGTGGCTACGACGGGATT"}, "B9": {"name": "GGAGGUG (DNA:RNA)", "RNA": "B1 RNA with A25G, A26G, A29G", "DNA 1": "CAATCTGAATTCCGGTCTCCC", "DNA 2": "TGGTGGCTACGACGGGATT"}, "B10": {"name": "UGUAGAU (DNA:RNA)", "RNA": "B3 RNA with G25U, C27U, C28A, C29G, G30A, C31U", "DNA 1": "CAATCTGAATTCCGGTCTCCC", "DNA 2": "TGGTGGCTACGACGGGATT"}, "B11": {"name": "CUUUCCU (DNA:RNA)", "RNA": "B3 RNA with G25C, G26U, C27U, C28U, G30C, C31U", "DNA 1": "CAATCTGAATTCCGGTCTCCC", "DNA 2": "TGGTGGCTACGACGGGATT"}, "B12": {"name": "AUUCGGG (DNA:RNA)", "RNA": "B1 RNA with A26U, A27U, G28C, A29G, U30G", "DNA 1": "CAATCTGAATTCCGGTCTCCC", "DNA 2": "TGGTGGCTACGACGGGATT"}, "B13": {"name": "UCGCUGU (DNA:RNA)", "RNA": "B3 RNA with G25U, G26C, C27G, C29U, C31U", "DNA 1": "CAATCTGAATTCCGGTCTCCC", "DNA 2": "TGGTGGCTACGACGGGATT"}, "B14": {"name": "AAUUGUC (DNA:RNA)", "RNA": "B1 RNA with A27U, G28U, A29G, G31C", "DNA 1": "CAATCTGAATTCCGGTCTCCC", "DNA 2": "TGGTGGCTACGACGGGATT"}, "B15": {"name": "AAUGGUC (DNA:RNA)", "RNA": "B1 RNA with A27U, A29G, G31C", "DNA 1": "CAATCTGAATTCCGGTCTCCC", "DNA 2": "TGGTGGCTACGACGGGATT"}, "B16": {"name": "GUCGGAG (DNA:RNA)", "RNA": "B1 RNA with A25G, A26U, A27C, A29G, U30A", "DNA 1": "CAATCTGAATTCCGGTCTCCC", "DNA 2": "TGGTGGCTACGACGGGATT"}, "B17": {"name": "GCGCCAC (DNA:RNA)", "RNA": "B3 RNA with G26C, C27G, G30A", "DNA 1": "CAATCTGAATTCCGGTCTCCC", "DNA 2": "TGGTGGCTACGACGGGATT"}, "B18": {"name": "GAAGAUU (DNA:RNA)", "RNA": "B1 RNA with A25G, G31U", "DNA 1": "CAATCTGAATTCCGGTCTCCC", "DNA 2": "TGGTGGCTACGACGGGATT"}, "B19": {"name": "UAGGAGU (DNA:RNA)", "RNA": "B1 RNA with A25U, A27G, U30G, G31U", "DNA 1": "CAATCTGAATTCCGGTCTCCC", "DNA 2": "TGGTGGCTACGACGGGATT"}, "B20": {"name": "UCGCAUG (DNA:RNA)", "RNA": "B1 RNA with A25U, A26C, A27G, G28C", "DNA 1": "CAATCTGAATTCCGGTCTCCC", "DNA 2": "TGGTGGCTACGACGGGATT"}, "B21": {"name": "UGUGCGC (DNA:RNA)", "RNA": "B3 RNA with G25U, C27U, C28G", "DNA 1": "CAATCTGAATTCCGGTCTCCC", "DNA 2": "TGGTGGCTACGACGGGATT"}, "B22": {"name": "AUAUUAC (DNA:RNA)", "RNA": "B1 RNA with A26U, G28U, A29U, U30A, G31C", "DNA 1": "CAATCTGAATTCCGGTCTCCC", "DNA 2": "TGGTGGCTACGACGGGATT"}, "B23": {"name": "GUCACCG (DNA:RNA)", "RNA": "B3 RNA with G26U, C28A, G30C, C31G", "DNA 1": "CAATCTGAATTCCGGTCTCCC", "DNA 2": "TGGTGGCTACGACGGGATT"}, "B24": {"name": "UACCGGG (DNA:RNA)", "RNA": "B3 RNA with G25U, G26A, C29G, C31G", "DNA 1": "CAATCTGAATTCCGGTCTCCC", "DNA 2": "TGGTGGCTACGACGGGATT"}, "B25": {"name": "UUUCGCG (DNA:RNA)", "RNA": "B1 RNA with A25U, A26U, A27U, G28C, A29G, U30C", "DNA 1": "CAATCTGAATTCCGGTCTCCC", "DNA 2": "TGGTGGCTACGACGGGATT"}, "B26": {"name": "CUUUAAG (DNA:RNA)", "RNA": "B1 RNA with A25C, A26U, A27U, G28U, U30A", "DNA 1": "CAATCTGAATTCCGGTCTCCC", "DNA 2": "TGGTGGCTACGACGGGATT"}, "B27": {"name": "GAUCAUC (DNA:RNA)", "RNA": "B1 RNA with A25G, A27U, G28C, G31C", "DNA 1": "CAATCTGAATTCCGGTCTCCC", "DNA 2": "TGGTGGCTACGACGGGATT"}, "B28": {"name": "GACACUG (DNA:RNA)", "RNA": "B1 RNA with A25G, A27C, G28A, A29C", "DNA 1": "CAATCTGAATTCCGGTCTCCC", "DNA 2": "TGGTGGCTACGACGGGATT"}, "B29": {"name": "AUUUUCC (DNA:RNA)", "RNA": "B1 RNA with A26U, A27U, G28U, A29U, U30C, G31C", "DNA 1": "CAATCTGAATTCCGGTCTCCC", "DNA 2": "TGGTGGCTACGACGGGATT"}, "B30": {"name": "UAUACUG (DNA:RNA)", "RNA": "B1 RNA with A25U, A27U, G28A, A29C", "DNA 1": "CAATCTGAATTCCGGTCTCCC", "DNA 2": "TGGTGGCTACGACGGGATT"}, "B31": {"name": "GAGUAGC (DNA:RNA)", "RNA": "B3 RNA with G26A, C27G, C28U, C29A", "DNA 1": "CAATCTGAATTCCGGTCTCCC", "DNA 2": "TGGTGGCTACGACGGGATT"}}, "note": "Numbering of substitutions follows the chain as printed; changes in the protein carry UniProt numbers. Some of the results follow.", "data": [{"target": "T1, RBFOX1 RRM (Homo sapiens, UniProt Q9NWB1 109-208)", "T1 sequence": "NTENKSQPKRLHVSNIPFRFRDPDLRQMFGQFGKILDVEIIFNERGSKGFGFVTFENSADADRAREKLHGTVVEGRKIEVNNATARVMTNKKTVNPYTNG", "assay": "EMSA; HiTS-Eq, 1 nM pool, 10 min; buffer printed only for the single-RNA assays: 10 mM Tris pH 7.5, 150 mM NaCl, 3.4 mM EDTA, 0.001% NP-40, 30 C", "conditions": "tags: His6 N-terminal (pET28a); label: 5' 32P", "summary_of_the_method": "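Purified RbFox RRM, wild type or mutant, was incubated for 10 min in 50 µL with 1 nM of a 5′-radiolabelled RNA pool carrying 7 randomized nucleotides, whose flanks were annealed to DNA oligonucleotides, over a series of increasing protein concentrations. Unbound RNA was resolved on 8% native PAGE, cut out, reverse-transcribed, barcoded by PCR and sequenced on an Illumina HiSeq 2500. Relative association constants were derived from changes in read counts for each RNA species versus the control reaction and normalised to the cognate motif.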", "values": [{"binder": "B1", "binding signal": "0.00956 KA relative to UGCAUGU"}, {"binder": "B2", "binding signal": "0.025 KA relative to UGCAUGU"}, {"binder": "B3", "binding signal": "0.0121 KA relative to UGCAUGU"}, {"binder": "B4", "binding signal": "0.0113 KA relative to UGCAUGU"}, {"binder": "B5", "binding signal": "0.00841 KA relative to UGCAUGU"}, {"binder": "B6", "binding signal": "0.0176 KA relative to UGCAUGU"}, {"binder": "B7", "binding signal": "0.0109 KA relative to UGCAUGU"}, {"binder": "B8", "binding signal": "0.0127 KA relative to UGCAUGU"}, {"binder": "B9", "binding signal": "0.0187 KA relative to UGCAUGU"}, {"binder": "B10", "binding signal": "0.0166 KA relative to UGCAUGU"}, {"binder": "B11", "binding signal": "0.0054 KA relative to UGCAUGU"}, {"binder": "B12", "binding signal": "0.00371 KA relative to UGCAUGU"}, {"binder": "B13", "binding signal": "0.0158 KA relative to UGCAUGU"}, {"binder": "B14", "binding signal": "0.012 KA relative to UGCAUGU"}, {"binder": "B15", "binding signal": "0.0155 KA relative to UGCAUGU"}, {"binder": "B16", "binding signal": "0.0107 KA relative to UGCAUGU"}, {"binder": "B17", "binding signal": "0.00734 KA relative to UGCAUGU"}, {"binder": "B18", "binding signal": "0.0102 KA relative to UGCAUGU"}, {"binder": "B19", "binding signal": "0.00816 KA relative to UGCAUGU"}, {"binder": "B20", "binding signal": "0.809 KA relative to UGCAUGU"}, {"binder": "B21", "binding signal": "0.0248 KA relative to UGCAUGU"}, {"binder": "B22", "binding signal": "0.00166 KA relative to UGCAUGU"}, {"binder": "B23", "binding signal": "0.00574 KA relative to UGCAUGU"}, {"binder": "B24", "binding signal": "0.0072 KA relative to UGCAUGU"}, {"binder": "B25", "binding signal": "0.0181 KA relative to UGCAUGU"}, {"binder": "B26", "binding signal": "0.00803 KA relative to UGCAUGU"}, {"binder": "B27", "binding signal": "0.00783 KA relative to UGCAUGU"}, {"binder": "B28", "binding signal": "0.0175 KA relative to UGCAUGU"}, {"binder": "B29", "binding signal": "0.00413 KA relative to UGCAUGU"}, {"binder": "B30", "binding signal": "0.0121 KA relative to UGCAUGU"}, {"binder": "B31", "binding signal": "0.0126 KA relative to UGCAUGU"}]}]}
